In ChEMBL document CHEMBL1157539, “Thousands of chemical starting points for antimalarial lead identification” (Nature, 2010):
Over roughly 13,000 compounds, “IFI” has its median near 4; the highest 2% begin near 17. This is one part of the list. Residues, ends and D or L forms follow the SMILES beside them. *: point of attachment. Boc = CC(C)(C)OC(=O)*

Experiment: GSK_TCMDC: Inhibition Frequency Index (IFI). The number of non-kinase HTS assays where a compound showed > 50 % inhibition, expressed as a percentage of the number of such assays in which the compound was tested (-0 is zero)
Type: functional
Molecule `COc1ccccc1N1CCN(CCCCNC(=O)c2ccc(NC(=O)c3ccc4ccccc4c3)cc2)CC1` has an IFI of 5.51%. With `Cc1ccc2c(=O)n(C)c(=O)n(C)c2n1` the IFI was 0.76%. For `Cn1nc(-c2cccc(CNCc3ccccc3)c2)c2cnc(NC3CCCC3)nc21`, the IFI was 4.76%. `COc1ccc(-c2ccc([N+](=O)[O-])cc2C(=O)NCC(C)Oc2ccc(C(F)(F)F)cc2)cc1` (configuration not stated) gave an IFI of 4.5%. For `CCCCc1cc(NCC)nc(Nc2ccc(OC)cc2)n1`, the IFI was 7.04%. `Fc1ccc2[nH]c(-c3ccc(-c4cccc(CN5CCC(CCN6CCCCC6)CC5)c4)cc3)nc2c1` showed an IFI of 6.94%. For `Cc1nc(-c2ccc(-c3ccc(C(=O)Nc4ccc(I)c(OCC5CCCN5C)c4)cc3)c(C)c2)no1` (configuration not stated), the IFI was 6.62%. `Nc1nc(N)c2cc(N(Cc3ccccc3)Cc3ccccc3)ccc2n1` showed an IFI of 6.34%. `Cc1ccc2nc3c(cc(C(=O)NCCc4ccccc4)c(=N)n3CCCOC(C)C)c(=O)n2c1` gave an IFI of 3.23%. Work on `CN(C)CCOc1ccc(-c2cc(-c3ccc(Cl)c(O)c3)c(-c3ccncc3)o2)cc1` yielded an IFI of 10.4%. For `CN1CCN(CCCN(Cc2cccc(-c3cccc(CNC4CCCC4)c3)c2)C(=O)CCC2CCCC2)CC1`, the IFI was 8.15%. Work on `Cc1cccc2nc(-c3ccc(-c4cccc(NC(=O)CCc5c[nH]cn5)c4)s3)[nH]c12` yielded an IFI of 1.72%. Work on `Clc1ccc(C=NN=c2cc[nH]c3ccccc23)cc1` yielded an IFI of 1.47%. For `Cc1ccccc1C1CCN(C2CCC(NC(=O)c3ccc(-c4cccc(C(F)(F)F)c4)o3)CC2)CC1` (configuration not stated), the IFI was 14%. `O=C(CC1CCCC1)Nc1ccc2c(c1)CCC2` showed an IFI of 0.95%. Molecule `CNC(=O)c1c(NC(=O)c2cccs2)sc2c1CCCC2` has an IFI of 2.24%. Molecule `CCN1CCC(N(Cc2ccc(-c3ccc(C(F)(F)F)cc3)cc2)C(=O)Cn2c(CCc3cccc(F)c3F)cc(=O)c3c2CCCC3)CC1` has an IFI of 6.38%. For `COc1cc(CCNC(=N)/C=C/c2ccc(Cl)cc2)ccc1Cl`, the IFI was 5.8%. With `O=C(Nc1cccc2ccccc12)N1CCc2cc3nccc(N4CCN5CCC[C@H]5C4)c3cc21` the IFI was 2.86%. In the case of `CCOc1c(CNCCCNc2cc(O)c3ccccc3n2)cc(Br)cc1OC`, the IFI is reported as 3.01%. For `CCN(CC)CCCC(C)Nc1ccnc2cc(C#N)ccc12` (configuration not stated), the IFI was -0%. With `Cc1cc(N[C@@H](Cc2ccccc2)C(=O)NCCOc2ccccc2)nc(NCCc2cccs2)n1` the IFI was 11.6%. In the case of `CN1CCC(C(=O)N(Cc2ccc(-c3ccc(CNCCc4ccc(S(C)(=O)=O)cc4)cn3)cc2)C2CCN(Cc3ccccc3)CC2)CC1`, the IFI is reported as 2.11%. Work on `CN(C)c1ccc(N2C(N)=NC(N)=NC23CCCC3)cc1` yielded an IFI of 1.41%. `COc1ccc(C(=O)N[C@@H](CC(C)C)C(=O)N[C@H](/C=N/NC(=O)c2ccccc2)CCc2ccccc2)cc1OCCN1CCOCC1` gave an IFI of 2.68%. Molecule `CC(C)CCNC(=O)C1Cc2c([nH]c3cc(Br)ccc23)C2(CCN(CCc3ccccc3)CC2)N1` (configuration not stated) has an IFI of 2.9%. Molecule `CC(C)Oc1ccc(CCCON2C(=N)N=C(N)NC2(C)C)cc1` has an IFI of 5.63%. `CN1CCN(c2ccnc3ccc(NC(=O)Cc4ccc5ccccc5c4)cc23)CC1` gave an IFI of 0.74%. `CCc1cc(OC)c(C(=O)NC2CCN(C[C@H](O)c3ccnc4ccc(OC)cc34)CC2)cc1Br` gave an IFI of 0.75%. Work on `O=C(/C=C/c1ccc(Cl)c(Cl)c1)NCCCCCCN1CCN(C(=O)Nc2cc(F)cc(F)c2)CC1` yielded an IFI of 8%. `Cc1ccc(O)cc1Nc1ccnc2cc(-c3nccs3)ccc12` gave an IFI of 9.03%. With `CCNc1cc(C(=O)N[C@@H](Cc2ccccc2)[C@H](O)CNCc2cccc(OC)c2)c(OC)c(N2CCCCS2(=O)=O)c1` the IFI was 2.9%. In the case of `COc1cc2ncnc(Nc3ccc(OCc4ccccc4)c(C(F)(F)F)c3)c2cc1OC`, the IFI is reported as 1.6%. `CCN1CCN(c2cc(C)c3cc(NC(=O)c4cc(OC)cc(OC)c4)ccc3n2)CC1` showed an IFI of 4.03%. For `O=C(Nc1cc(C(F)(F)F)ccc1-n1cncn1)C1(c2ccccc2)CC1`, the IFI was 3.06%. In the case of `Nc1nc(N)c2c(ccc3nn(Cc4ccccc4)cc32)n1`, the IFI is reported as 2.88%. With `COc1ccc(CCNCC(O)COc2nccc3c(S(=O)(=O)N4CCCNCC4)cccc23)cc1OC` (configuration not stated) the IFI was 4%. Molecule `CCCNCc1ccc(-c2ccc(CN(Cc3cnc(C)cn3)C(=O)/C=C/c3ccccc3C)cc2)nc1` has an IFI of 1.52%. Molecule `CCn1c(Sc2ccc(C#N)c([N+](=O)[O-])c2)nnc1-c1cc(OC)cc(OC)c1` has an IFI of 2.14%. `COc1ccc(C23Oc4cc(OC)cc(OC)c4C2(O)C2(CC3c3ccccc3)SCCCS2)cc1` (configuration not stated) gave an IFI of 8.57%. `O=C(NC1CCN(Cc2ccccc2)CC1)c1ccc(-c2nc3cc(Cl)c(Cl)cc3[nH]2)c(F)c1` showed an IFI of 0.74%. With `CCN(CCCN1CCCCC1)c1cc(C)nc(Nc2cccc3c2CCCC3)n1` the IFI was 6.41%. `CCCN(Cc1nnc(-c2cccs2)o1)C(=O)C1COc2ccccc2O1` (configuration not stated) showed an IFI of 2.27%. With `O=C(/C=C/c1ccc(Cl)c(Cl)c1)NCCCCCCN1CCN(C(=O)Nc2ccc(Cl)c(C(F)(F)F)c2)CC1` the IFI was 7.2%. For `CCC(CC)n1cc2c(ccc3nc(N)nc(N)c32)n1`, the IFI was 2.17%. `COc1ccc2nc(-c3cc(-c4ccc(NC(=O)C(C)C)cc4)cnc3N)[nH]c2c1` gave an IFI of 6.43%. `CN=C(Nc1c(Cl)cccc1Cl)N(C)C` showed an IFI of 0.76%. In the case of `O=C(NCCCCN1CCC(c2ccc3c(c2O)CCCC3)CC1)c1ccc(NC(=O)c2ccc(Cl)cc2)cc1`, the IFI is reported as 7.27%. With `Cc1nc(-c2nc(N3CCOCC3)ncc2-c2ccsc2)sc1C` the IFI was 2.2%. Work on `O=C(Nc1cccc(CCNCc2ccccc2)c1)Nc1cccc2ccccc12` yielded an IFI of 5.63%. For `CC1CN(Cc2ccc(C#N)cc2)CCN1c1ccc(NC(=O)c2cccs2)cc1` (configuration not stated), the IFI was 2.44%. Molecule `Cc1cccc2nc(-c3ccc(-c4ccc(CN5CCCCC5)cc4)s3)[nH]c12` has an IFI of 4.23%. Work on `NC(=O)c1cccc(C(=O)Nc2cccc(-c3cccc(-c4nc5cc(F)ccc5[nH]4)c3)c2)c1` yielded an IFI of 3.45%. For `O=[N+]([O-])c1ccc(Nc2nc(N/N=C/c3cccc(O)c3)nc(N3CCCC3)n2)cc1`, the IFI was 3.5%. `COc1cc(C(=O)NC2CCN(Cc3ccccc3)CC2)ccc1-c1cc2cc(Cl)c(Cl)cc2[nH]1` showed an IFI of 3.57%. For `CS(=O)(=O)N1CC2(CCN(CCC(NC(=O)Nc3ccccc3)c3ccc(Cl)c(Cl)c3)CC2)c2ccccc21` (configuration not stated), the IFI was 4.08%. In the case of `CC(=O)Nc1nc(C(=O)Nc2ccc(-c3ccc(-c4nc5ccccc5[nH]4)cc3)cc2)cs1`, the IFI is reported as 7.76%. For `CC1(C)N=C(N)N=C(N)N1OCc1ccc2ccccc2c1`, the IFI was 2.17%. `NC1CCCN(Cc2cccc(-c3cccc(-c4nc5ccccc5[nH]4)c3)c2)C1` (configuration not stated) showed an IFI of 4.17%. Molecule `NS(=O)(=O)c1ccc(Nc2nccc(-c3c(-c4cccc(NC(=O)c5c(F)cccc5F)c4)nn4ccccc34)n2)cc1` has an IFI of 7.96%. `c1ccc(CN2CCC(NCc3ccc(-c4cncc5ccccc45)cc3)CC2)cc1` gave an IFI of 9.52%. With `Cc1cc(=NN=Cc2cccc(Cl)c2)c2ccc(F)cc2[nH]1` the IFI was 1.49%. For `O=C(/C=C/c1ccc(Cl)c(Cl)c1)NCCCCCN1CCC(NC(=O)Nc2ccc(C(F)(F)F)cc2)CC1`, the IFI was 10.6%. Work on `C[C@@H](Oc1cc(-n2cnc3ccc(NC(=O)CCN4CCCCC4)cc32)sc1C(N)=O)c1ccccc1Cl` yielded an IFI of 7.75%. For `CN(C)c1ccc(CN2CCC(NC(=O)c3ccc(-c4cccc(Cl)c4)s3)CC2)cc1`, the IFI was 17.9%. For `O=C(NCc1ccccc1)c1ccc(C(=O)NCC2CNCCO2)cc1` (configuration not stated), the IFI was -0%. `O=C(/C=C/c1ccc(Cl)c(Cl)c1)NCCCCCN1CCCN(C(=O)Nc2cc(Cl)cc(Cl)c2)CC1` showed an IFI of 7.38%. Molecule `COc1ccc2nc(C)cc(NCc3ccc4ccccc4c3)c2c1` has an IFI of 1.42%. With `CCCC1N=C(N)N=C(N)N1c1cccc(C(F)(F)F)c1` (configuration not stated) the IFI was 0.77%. In the case of `O=C(Nc1ccc(-c2nc3ccccc3[nH]2)cc1)c1cncc(Br)c1`, the IFI is reported as 0.72%. Molecule `Cc1cccc(-c2ccc(NC(=O)Nc3ccc4nccc(N5CCN(C)CC5)c4c3)cc2C)n1` has an IFI of 2.92%. For `N=C(N)Nc1nc(-c2ccc(NC(=O)Nc3cccc(-c4csc(NC(=N)N)n4)c3)cc2)cs1`, the IFI was 5.76%. `CCN(CC)c1nc(Nc2cc(C)ccc2C)nc(Nc2ccccc2O)n1` showed an IFI of 2.17%. `CC(C)N(CCOc1ccc2c(c1)N(C(=O)Nc1ccc(Cl)c(Cl)c1)CC2)C(C)C` showed an IFI of 4.32%. Molecule `N=C(N)NN=CC(=O)Nc1ccc(Cl)cc1` has an IFI of 3.01%. `CC(CON1C(N)=NC(N)=NC1(C)C)c1ccc(Cl)cc1Cl` (configuration not stated) showed an IFI of 5.04%. In the case of `Cc1cccc2nc(-c3ccc(-c4ccc(NC(=O)NCc5ccc(F)cc5)cc4)cc3)[nH]c12`, the IFI is reported as 6.67%. In the case of `CC(C)CN1C(=O)c2ccc(C(=O)Nc3nccs3)cc2C1=O`, the IFI is reported as 0.71%. For `CC(C)CCN1CCCN(Cc2cccc(C(=O)Nc3ccc(C(C)(C)C)cc3)c2)CC1`, the IFI was 7.5%. With `NC(=O)c1ccc(C(=O)Nc2cccc(-c3ccc(-c4nc5cc(C(F)(F)F)ccc5[nH]4)cc3)c2)cc1` the IFI was 2.59%. Work on `Cc1cc(=NN=Cc2ccccc2Cl)c2cc(C(F)(F)F)ccc2[nH]1` yielded an IFI of 1.54%. For `CC(C)n1ncc2c(C(=O)N3CCCc4ccccc43)cc(-c3ccccc3)nc21`, the IFI was 2.97%. For `CN1CCN(c2ccnc3ccc(NC(=O)c4ccc(Cl)c(Cl)c4)cc23)CC1`, the IFI was -0%. `N#Cc1ccc(-c2ccc(C(=O)NCCCCN3CC=C(c4ccc5c(c4OCC4CC4)CCCC5)CC3)cc2)cc1` gave an IFI of 11.4%. In the case of `Cc1noc(C)c1-c1cccc(CNCc2cccc(-c3csc(-c4nc5ccccc5[nH]4)c3)c2)c1`, the IFI is reported as 7.69%. With `COC(=O)CC[C@H](NC(=O)[C@H](C)NC(=O)OC(C)(C)C)C(=O)OC` (Boc-Ala-Glu(OMe)-OMe) the IFI was -0%. `COc1cc(NC(=O)/C=C/c2ccc(-c3ccccc3)cc2)ccc1OCCN(C(C)C)C(C)C` gave an IFI of 7.3%. `CN1CCCN(c2ccnc3cc4c(cc23)N(C(=O)c2ccc(Cl)c(Cl)c2)CC4)CC1` showed an IFI of 3.62%. `Cc1ccc(C(=O)N2CCc3cc4nccc(N5CCN6CCC[C@H]6C5)c4cc32)cc1` gave an IFI of 3.65%. `CC1(C)NC(N)=NC(=N)N1OCCCc1ccc(Cl)cc1Cl` gave an IFI of 5.76%. Work on `NOCCCOc1ccccc1` yielded an IFI of 1.46%. For `CCC[C@@H]([C@@H](CC(C)C)C(=O)N[C@@H](CCC/N=C(/N)NS(C)(=O)=O)C(=O)Nc1nccs1)N(O)C=O`, the IFI was 2.24%.
